Laboratory results: the RNAGym collection of RNA variant scans (doi:10.1093/nar/gkz1192)
The source gives no read counts; variants with many changes may rest on few reads.

B1: CPEB3 Ribozyme (parent)
chain: UAACAGGGGGCCACAGCAGAAGCGUUCACGUCGCAGCCCCUGUCAGAUUCUGGUGAAUCUGCGAAUUCUGCUGUAUAUCUC

Variants of: B1
Experiment: self-cleavage, relative activity (ratio to wild type); higher = more cleavage; in vitro, sequencing
Method in brief: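 Barcoded CPEB3 ribozyme mutants, produced by rounds of error-prone PCR, self-cleaved while being transcribed with T7 RNA polymerase for 5 hours at 37°C and during a subsequent 15 min DNase I step before EDTA was added. Sequencing of template-switched cDNA on Illumina gave cleaved and total reads, and DNA sequencing assigned barcodes to variants. Each variant's relative activity is its cleaved/total read fraction divided by the unmutated ribozyme's fraction, averaged across three batches. A variant needed a minimum of 5 reads.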

| Variant | self-cleavage |
| --- | --- |
| A18U U60A U72A | 0.74 |
| A18U U60A U76A | 0.25 |
| A18U U60A U80C | 0.24 |
| A18U U60C A64U U66C | 0.4 |
| A18U U60C U72A | 0.21 |
| A18U U66C U74A | 0.17 |
| A18U U67C C81A | 0.25 |
| A18U U67C U76C | 0.23 |
| A18U U69C U72C A77G | 0.25 |
| A18U U69C U80C | 0.56 |
| G19A A20G A28G U41A | 0.09 |
| G19A A20G U54C U60C | 0.11 |
| G19A A20G U54C U60C U69A | 0.16 |
| G19A A21G A35U C39A G46C A77G | 0.04 |
| G19A A21G U25C U41A | 0.24 |
| G19A A21G U26C | 0.22 |
| G19A A21G U48C | 0.16 |
| G19A A28G G73A | 0.42 |
| G19A A35C C39U U60C | 0.1 |
| G19A A35G A56G U60A U69C | 0.05 |
| G19A A35G A57G | 0.24 |
| G19A A35G C62A U80A | 0.15 |
| G19A A35G U54C A64G U76C | 0.58 |
| G19A A35U U49A A56G | 0.04 |

| Variant | self-cleavage |
| --- | --- |
| G19A A45G G63C | 0.09 |
| G19A A47G U74C | 0.24 |
| G19A A56G G73A | 0.13 |
| G19A A57G U60C | 0.23 |
| G19A A75U U78C | 0.04 |
| G19A C27U U49C | 0.5 |
| G19A C27U U51C | 0.13 |
| G19A C32A U60C A64G | 0.08 |
| G19A C40U C44G A56G A57U U66C | 0.11 |
| G19A G22U C39U A47G A57C G63A | 0.09 |
| G19A G30A G52C | 0.15 |
| G19A G36U U76A | 0.17 |
| G19A U25A A57G | 0.16 |
| G19A U25C A75U | 0.09 |
| G19A U25C U43C A56G | 0.21 |
| G19A U26A U51A A56G | 0.06 |
| G19A U26C U67C | 0.11 |
| G19A U41C A47G U48C A64G | 0.05 |
| G19A U48C U69A | 0.11 |
| G19A U49C U58C C81G | 0.15 |
| G19A U60A U80C | 0.15 |
| G19A U66C U80A | 0.07 |
| G19A U67C A77U | 0.07 |
| G19A U78C U80A | 0.48 |

| Variant | self-cleavage |
| --- | --- |
| G19C A20C U25C A65C A77G | 0.09 |
| G19C A20G C37U U60C C62G G73A | 0.04 |
| G19C A20G U72A | 0.25 |
| G19C A20U A65G | 0.18 |
| G19C A28G C38U A56G | 0.18 |
| G19C A28U A47U U74G | 0.25 |
| G19C A28U C29U C34U U51A A57G A64U | 0.04 |
| G19C A28U U51A | 0.15 |
| G19C A35U U54C A56G U69A | 0.08 |
| G19C A47G A64G | 0.1 |
| G19C A47G A64G U72C U78C | 0.09 |
| G19C A47G U54C A64G | 0.18 |
| G19C A64U A65G U67C | 0.1 |
| G19C A65U U74A | 0.13 |
| G19C C38G U41A U66G U67A U74C | 0.07 |
| G19C G24C G52U U66A U74C | 0.08 |
| G19C G52U A56G | 0.31 |
| G19C U26C A28U U49C | 0.19 |
| G19C U26C C32U A57G | 0.16 |
| G19C U31C U54A A56U U58C A64G | 0.12 |
| G19C U43C G52U U69C U72C | 0.23 |
| G19C U43C U51C | 0.22 |
| G19C U48C A57G U72A A75U | 0.26 |
| G19C U67C U74C | 0.25 |

| Variant | self-cleavage |
| --- | --- |
| G19C U74A A77G | 0.43 |
| G19U A20G A45U G46A C50U | 0.07 |
| G19U A20G U41C U72A U74A | 0.22 |
| G19U A21G A45U A47U U60C G73A | 0.1 |
| G19U A21G A57G | 0.17 |
| G19U A21G U26C U41A U60C | 0.05 |
| G19U A21G U41G A64G | 0.17 |
| G19U A21G U54C | 0.2 |
| G19U A21U U31C G63A | 0.18 |
| G19U A28U A65G | 0.15 |
| G19U A35G A64G U74A | 0.72 |
| G19U A35G U51A | 0.52 |
| G19U A35G U51C G73U | 0.36 |
| G19U A35U A57U A65G | 0.08 |
| G19U A45U G46A C50U A64G U69C | 0.17 |
| G19U A47G U48A U60C U80C | 0.24 |
| G19U A47G U48A U80C | 0.15 |
| G19U A47G U51A | 0.1 |
| G19U A47U U54C | 0.12 |
| G19U A56C U80C | 0.26 |
| G19U A64U A75U | 0.2 |
| G19U C23U U26C U41C A75U | 0.28 |
| G19U C27U A35U A56U A65G U69A | 0.07 |
| G19U C32U U43C A45U U51C | 0.08 |

| Variant | self-cleavage |
| --- | --- |
| G19U C34U U49C | 0.05 |
| G19U C34U U51C U72A | 0.05 |
| G19U C37A U51C | 0.11 |
| G19U C40A A45G | 0.11 |
| G19U G22U U26C U51A | 0.11 |
| G19U G24C A35G U66C A77G U80C | 0.13 |
| G19U G30A A57G | 0.1 |
| G19U G30A A77C | 0.07 |
| G19U G30A U60C U74C | 0.13 |
| G19U U25A U41A | 0.27 |
| G19U U25C A28U A45G U69C | 0.05 |
| G19U U25C A64G | 0.16 |
| G19U U25C U26C U41G A45G | 0.37 |
| G19U U26C A35G A64U | 0.39 |
| G19U U26C A45U | 0.18 |
| G19U U26C C32A U48C | 0.17 |
| G19U U26C U31A A35G A64G | 0.07 |
| G19U U31C U41A | 0.29 |
| G19U U41A A45G A57G | 0.17 |
| G19U U41C G73A U74C | 0.61 |
| G19U U41C U78C | 0.28 |
| G19U U41G U54G | 0.47 |
| G19U U43A A75U | 0.18 |
| G19U U48C U51C U54C | 0.21 |

| Variant | self-cleavage |
| --- | --- |
| G19U U49A A65U U69A U78C | 0.06 |
| G19U U49G G61A U76A U78C | 0.09 |
| G19U U51C A56U | 0.09 |
| G19U U54A U66C | 0.14 |
| G19U U66C C81U | 0.22 |
| A20C A21G A28G U41G | 0.09 |
| A20C A21G A47G A64U | 0.15 |
| A20C A21G U60A C62U | 0.17 |
| A20C A21U C44A U60A U78C | 0.1 |
| A20C A28C U67A | 0.09 |
| A20C A28G U41C A45G | 0.17 |
| A20C A35G A45U U69C | 0.18 |
| A20C A47G U54A U58C | 0.14 |
| A20C A47G U54C C62A | 0.29 |
| A20C A47G U72A | 0.13 |
| A20C A57G G73A | 0.46 |
| A20C A64G U78A | 0.22 |
| A20C A65G U69C | 0.41 |
| A20C C27A A45G | 0.14 |
| A20C C29A A35U U41A | 0.07 |
| A20C C29G U72C A75G | 0.2 |
| A20C C29U A45G | 0.05 |
| A20C C39A U41C U49C | 0.23 |
| A20C C39U U58C U74A | 0.07 |

| Variant | self-cleavage |
| --- | --- |
| A20C C40A U48C A64G | 0.19 |
| A20C C44U U54C U60C U74C | 0.05 |
| A20C G24C U74C U80A | 0.21 |
| A20C U25A U41C U80C | 0.13 |
| A20C U25C U26C | 0.42 |
| A20C U25C U31A | 0.1 |
| A20C U26C C59A U72C | 0.13 |
| A20C U26C C62U | 0.18 |
| A20C U31A G33A A35G U41C A45G | 0.03 |
| A20C U31C U43A A47U A56G U60C C68U | 0.07 |
| A20C U41C A57G | 0.17 |
| A20C U43G U51A | 0.06 |
| A20C U49A U72A U78C | 0.22 |
| A20C U51A A57G | 0.1 |
| A20C U54A C59A A65G C68A | 0.04 |
| A20C U66C U76A U80C | 0.23 |
| A20G A21C G22A U41C A57G U76A | 0.07 |
| A20G A21G A28G C38U C44A A56U A65G | 0.03 |
| A20G A21G A45G U58C | 0 |
| A20G A21G A45U A47G G70A A77G | 0.09 |
| A20G A21G A45U U54C A56G A64G | 0 |
| A20G A21G A47G U66C U69C G73A | 0.11 |
| A20G A21G A56G A57G U67C | 0.19 |
